Measurements taken from the supplement of paper PMC10338343.
± gives the standard deviation. Only a part is listed here, and it is no random draw.

The sequences below were run on MIWI (PIWIL1) piRISC loaded with piRNA #1 (30 nt) (assay: pre-steady-state target cleavage rate (min^-1); MIWI and MILI are mouse PIWI proteins and EfPiwi is from a freshwater sponge; tags in brackets are library labels; higher = faster piRNA-guided slicing of the target). Settings: guide: piRNA #1 5'p-UGAGGUAGUAGGUUGUAUAGUAUCCAGAGG; auxiliary factor: 500 nM mouse GTSF1.
In short: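 The pre-steady-state cleavage rate was obtained by Cleave-'n-Seq with a burst-and-steady-state fit. A transcribed, DNA-blocked target RNA library (0.1 nM) was mixed with 1 nM active affinity-purified piRISC carrying one synthetic guide, with or without 500 nM GTSF1 partner protein, in HEPES–potassium acetate buffer at 33 °C for 0–8 or 0–960 min. Uncleaved targets were sequenced and normalised to depth and to weakly complementary targets, with three trials pooled and k3 capped at 0.0001 min^-1.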

Sequence	pre-steady-state target cleavage rate
GGAGACCAUACUAUUGUACCUACUACCUCA	0.00746 ± 0.0019
GGAGAGGAUACUAUACAUGGUACUACCUCA	0.0299 ± 0.0069
GGACUGGAUACUUUACAAGCUACUACCUCA	0.959 ± 0.059
CCUCUGGAUACUAUACAACCUACUACGUCA	1.49 ± 0.11
GGAGACCUUACUAUACAUCGUACUACCUCA	0.0464 ± 0.007
GGAGACCUAUCUUUACAACCUACUACGUCA	0.146 ± 0.027
GGUCUGGAUACUAUACAACAUACUACCUCA	1.24 ± 0.07
GGACUGGAAACUAUACAACCUACAACCUCA	0.194 ± 0.038
GGAGACCAUAGUAUACAACCUACUACCACA	0.594 ± 0.062
GGAGUGGAUACUAUACAACCACUACCUCA	0.00426 ± 0.0026
GGAGACCUUACUAUACAACGUACAACCUCA	0.0817 ± 0.018
GGAGACCUAUGUCAUACAACCUACUACCUCA	0.0206 ± 0.0051
GGAGACCUAAGUAUAGAACCUACUACCUCA	0.0385 ± 0.0096
GCUCUGGAUACUAUACAACCUACUUGCUCA	0.942 ± 0.12
GGAGACCUAUGUUAUCAACCUACUACCUCA	0.00278 ± 0.0016
GGAGACCUAACUAUACAACCUACGUACCUCA	0.234 ± 0.03
GGAGACCUUACUUUAGAACCUACUACCUCA	0.496 ± 0.053
CGUCUGGAUACUAAACAACCUACUACCUCA	1.82 ± 0.11
GGAGACGAUACUAUACAACGUACUAGCUCA	0.261 ± 0.067
GGUGUGGAUAGUAUACAACCUACUACCUCA	0.328 ± 0.033

Sequence	pre-steady-state target cleavage rate
GGACAGGAUACUAUACAACCUAGUACCUCA	0.394 ± 0.066
GCUCUGGAUACAAUACAACCUAGUACCUCA	0.314 ± 0.047
GCACUGGAUACUAUACAACCUACUACGUCA	0.786 ± 0.057
GGAGACCUAUGUAUACAAGCUACUACCACA	0.057 ± 0.01
GGAGACCUAUGAUAUGUUCCUUCUAGCUCA	< 0.0001
CCUCUGGAUACUUUACAACCAACUACCUCA	0.134 ± 0.017
GGAGACCUAUCUUUAGAACCUACUACCUCA	0.0114 ± 0.0032
GGAGACCUAUGAUAUGUACCUAGUACCACA	< 0.0001
GCUCUGGAUACUAUACAACCUACUAGGUCA	0.0149 ± 0.0059
GGAGUGGAUACAAUAGAACCUACUACCUCA	1.12 ± 0.056
GGUCUGGAUACUAAUCAACCUACUACCUCA	1.74 ± 0.14
GGAGUGGAUAUCUAUACAACCUACUACCUCA	0.831 ± 0.053
GCUCUGGUUACUAUACAACCUUCUACCUCA	0.701 ± 0.037
GGAGUGGAUACUUAACAACCUACUACCUCA	1.01 ± 0.093
GCUCUGGAUACUAUACAACCUUCUACCUGA	0.244 ± 0.044
CCUCUGGUAUACUAUACAACCUACUACCUCA	0.693 ± 0.029
GGUCUGGAUACUAUACAAACUACUACCUCA	0.79 ± 0.035
GGAGACCAUACUAUACUUGCUACUACCUCA	0.00532 ± 0.0018
GGUCUGGAUACUAUUCAACCUACUACCUGA	0.552 ± 0.1
